# Measurements reported in PubChem BioAssay (NCATS).
# Inconclusive results, whose numbers are uncertain, are shown with a selection of clear calls. For some of these results: No potency is given beside an inconclusive call; the fits are too rough. Active and inactive are the calls of the source. Unless noted, calls follow the shape of the dose curve; as a rule, active = well fitted curve in the direction sought with a large enough effect; inconclusive = small, poorly fitted or top-dose-only effect, or another doubt; inactive = no such curve, though single readings can be large; an effect the other way counts as inactive or inconclusive.
# Experiments:
# [1] = system: Zika virus NS2B-NS3 protease (linked construct); experiment: Primary screen NINDS Rhodamine qHTS for Zika virus inhibitors (AID 1347160); details: activity change, negative = inhibition: at 57.1 µM (top of the series) unless noted; also: nearly all actives have a fitted effect of over 55% in size
# Procedure, shortened: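 Percent inhibition, normalized to uninhibited and enzyme-free controls, is fitted to a 4-parameter Hill equation. Fluorescence change comes from a 15-min cleavage of 1.5 microM bis-peptide Rhodamine110 substrate by 25 nM linked NS2B-NS3 at room temperature.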
# [2] = Primary fluorescence-based thiol-reactive (MSTI) qHTS assay for identification of artifact compounds. (AID 1845221);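 also: thiol-reactive compounds lower the probe fluorescence signal; nearly all actives have a fitted effect of over 65% in size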
# Procedure, shortened: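 Reactivity toward the thiol probe MSTI (4 uM) is scored by fluorescence at Ex/Em 525/598 nm after 1 h at room temperature. Acetyl-MSTI and MSTI define the activity scale.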
# [3] = qHTS of pediatric cancer cell lines to identify multiple opportunities for drug repurposing: Primary screen for NB1643 cells (AID 1347099); also: nearly all actives have a fitted effect of over 50% in size
# Procedure, shortened: (§1)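 500-1,000 cells/well; 5 h pre-incubation 37 °C/5% CO2; compound pinned; 48 h; CellTiter-Glo, 15 min RT; luminescence. MIPE 11-pt from 0.78 nM, NPC 8-pt from 0.59 nM final. Bortezomib 2.3 µM final as positive control.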
# [4] = qHTS to identify inhibitors of the type 1 interferon - major histocompatibility complex class I in skeletal muscle: primary screen against the NCATS Mechanism Interrogation Plate v5.0 (MIPE) Libary (AID 1347411); details: iHSKM cells + IFN-b, HiBiT-tagged MHC-I luminescence, 24 h; activity change, negative = inhibition: at 45.8 µM (top of the series); also: nearly all actives have a fitted effect of over 65% in size
# Procedure, shortened: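 Luminescence from HiBiT-tagged endogenous HLA-B*08:01 served as the MHC class I read-out. CRISPR-engineered C25cl48 human myoblasts received 4.0 ng/ml IFN-beta plus compound for 24 hrs, with an 11-point, 1:3 series topping at 46 uM final.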
# [5] = Quantitative High-Throughput drug screen in 47 multiple myeloma cell lines against the NCATS MIPE library collection: Karpas417_ECACC cell viability assay (AID 1918961); details: Karpas417 myeloma viability, CellTiter-Glo ATP luminescence, 48 h; series mostly up to 45.8 µM
# Procedure, shortened: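 Approved and investigational drugs from MIPE 4.0 were added by pin tool to 500 cells per well. After 48 hours at 37C, ATP-based CellTiter-Glo luminescence indicated remaining viability.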
# [6] = Quantitative High-Throughput drug screen in 47 multiple myeloma cell lines against the NCATS MIPE library collection: JIM1_ECACC cell viability assay (AID 1918964)
# Procedure, shortened: (§2)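 CellTiter-Glo luminescence (ATP) after 48 h compound exposure, 37C/5% CO2; 500 cells/well; MIPE 4.0 approved/investigational drugs pinned in; DMSO = 100%, media only = 0% viability.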
# [7] = Quantitative High-Throughput drug screen in 47 multiple myeloma cell lines against the NCATS MIPE library collection: L363_DSMZ cell viability assay (AID 1918984); details: L363 myeloma viability, CellTiter-Glo ATP luminescence, 48 h; series mostly up to 45.8 µM; also: nearly all actives have a fitted effect of over 40% in size
# Procedure, shortened: (§3)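 MIPE 4.0 approved/investigational drugs; 500 cells/well; 48 h 37 °C humidified 5% CO2; CTG luminescence readout; DMSO = 100%, media = 0% viability.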
# [8] = qHTS of pediatric cancer cell lines to identify multiple opportunities for drug repurposing: Primary screen for DAOY cells (AID 1347090); details: DAOY medulloblastoma viability, CellTiter-Glo luminescence, 48 h; activity change, negative = cytotoxic: at 46 µM (top of the series); also: nearly all actives have a fitted effect of over 55% in size
# Procedure, shortened: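 Eight- or eleven-point concentration series, 48 h treatment at 37 degrees C in growth media; readout CellTiter-Glo luminescence. Potency and efficacy were taken from the concentration-response curves.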
# [9] = qHTS of pediatric cancer cell lines to identify multiple opportunities for drug repurposing: Primary screen for BT-37 cells (AID 1347094)
# Procedure, shortened: as §1
# [10] = qHTS of pediatric cancer cell lines to identify multiple opportunities for drug repurposing: Primary screen for BT-12 cells (AID 1347101); also: nearly all actives have a fitted effect of over 25% in size
# Procedure, shortened: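 Cells (500-1,000/well) rested 5 h, then received compounds for 48 h; metabolically active cells were measured by CellTiter-Glo luminescence. Final concentrations spanned up to 46 µM (MIPE, 11-point) or 0.59 nM-46 µM (NPC, 8-point) in primary screens, 11-point in follow-ups.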
# [11] = qHTS of pediatric cancer cell lines to identify multiple opportunities for drug repurposing: Primary screen for Rh18 cells (AID 1347102); also: nearly all actives have a fitted effect of over 65% in size
# Procedure, shortened: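 Cells (500-1,000/well) in growth media were settled 5 h at 37 degrees C, then given compounds for 48 h. Viability was read as CellTiter-Glo luminescence. Primary runs used MIPE at 11 points (0.78 nM-46 µM) and NPC at 8 points (0.59 nM-46 µM); follow-ups used 11 points.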
# [12] = qHTS of pediatric cancer cell lines to identify multiple opportunities for drug repurposing: Primary screen for RD cells (AID 1347104); details: RD rhabdomyosarcoma viability, CellTiter-Glo luminescence, 48 h; activity change, negative = cytotoxic: at 46 µM (top of the series); also: nearly all actives have a fitted effect of over 55% in size
# Procedure, shortened: as §1
# [13] = qHTS of pediatric cancer cell lines to identify multiple opportunities for drug repurposing: Primary screen for Rh41 cells (AID 1347108); also: nearly all actives have a fitted effect of over 70% in size
# Procedure, shortened: as §1
# [14] = Quantitative High-Throughput drug screen in 47 multiple myeloma cell lines against the NCATS MIPE library collection: KMS21BM_JCRB cell viability assay (AID 1918974); details: ATP luminescence, 48 h; viability: at 45.8 µM (top of the series)
# Procedure, shortened: as §2
# [15] = Quantitative High-Throughput drug screen in 47 multiple myeloma cell lines against the NCATS MIPE library collection: LP1_DSMZ cell viability assay (AID 1918982); also: nearly all actives have a fitted effect of over 35% in size
# Procedure, shortened: as §3
# [16] = qHTS for identification of novel therapeutic agents for treatment of microphthalmiaassociated transcription factor (MiT) renal cell carcinoma (RCC) (AID 1963991; calls by dose curve); details: TFE3-RCC UOK109 viability, CellTiter-Glo, 48 h; active = Z-AUC below -0.8 in all three lines
# Procedure, shortened: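 Viability of three TFE3-fusion renal carcinoma lines measured by CellTiter-Glo after 48 h treatment with each of 1912 compounds at 11 concentrations. Responses scaled between DMSO (100%) and empty wells (0%) before curve fitting.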
# UISO = experiment: qHTS assay to identify novel small-molecules to repurpose for Merkel cell carcinoma treatment (AID 1296009); details: MCC and control cell lines, CellTiter-Glo viability, 72 h; series mostly up to 46 µM; also: nearly all actives have a fitted effect of over 60% in size
# Procedure, shortened: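 qHTS format: cells treated with library compounds in DMSO across 8 (NPC) or 11 (MIPE) concentrations. Readout after 72 hr at 37 degree celsius was CellTiter-Glo luminescence.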
# [17] = target: Cytochrome P450 2D6 (Homo sapiens) (UniProt P10635); experiment: Cytochrome P450 family 2 subfamily D member 6 (CYP2D6) small molecule antagonists: luciferase biochemical (cell-free) qHTS assay (AID 1645840; active = well fitted curve in the direction sought with a large enough effect in the repeat runs; inconclusive = weak or mixed curves; inactive = no such curve, though single readings can be large; an effect the other way counts as inactive or inconclusive; also: nearly all actives have a fitted effect of over 55% in size)
# Procedure, shortened: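 P450-Glo luminescent screen: recombinant CYP2D6 enzyme–proluciferin substrate mix preincubated with compound 10 min at room temperature, then NADPH regeneration added for 1 h at room temperature. Detection reagent added for 20 min; luciferin light read as relative luminescence units.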
# [18] = Primary redox qHTS assay for identification of artifact compounds. (AID 1845223); details: Amplex Red/HRP redox cycling with DTT, fluorescence; series mostly up to 53.8 µM
# Procedure, shortened: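 Amplex Red (25 uM) and HRP (250 mU/mL) in HBSS, with compounds for 15 min, then 250 uM DTT for 30 min, room temperature, dark. Fluorescence 525/598 nm read; normalized to DMSO and 10 uM DA3003; Hill fit.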
# [19] = qHTS assay to identify inhibitors of the type 1 interferon - major histocompatibility complex class I in skeletal muscle: Counter screen cell viability and HiBit confirmation (AID 1347412); details: iHSKM muscle cells + IFN-b, HiBiT or CellTiter-Glo, 24 h; also: nearly all actives have a fitted effect of over 60% in size
# Procedure, shortened: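 HLA-B*08:01–HiBiT knock-in immortalized human myoblasts (C25cl48) stimulated with 4.0 ng/ml human IFN-beta and dosed with compound in a 12-point 1:3 titration (top final 46 uM). After 24 hrs at 37 C, HiBiT lytic luminescence or CellTiter Glo ATP read out.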
# Potency is read from the fitted curve at half-maximal effect; tags tell the direction and shape of the fitted curve.
# UniProt P10635, sequence (P10635 whole entry, looked up): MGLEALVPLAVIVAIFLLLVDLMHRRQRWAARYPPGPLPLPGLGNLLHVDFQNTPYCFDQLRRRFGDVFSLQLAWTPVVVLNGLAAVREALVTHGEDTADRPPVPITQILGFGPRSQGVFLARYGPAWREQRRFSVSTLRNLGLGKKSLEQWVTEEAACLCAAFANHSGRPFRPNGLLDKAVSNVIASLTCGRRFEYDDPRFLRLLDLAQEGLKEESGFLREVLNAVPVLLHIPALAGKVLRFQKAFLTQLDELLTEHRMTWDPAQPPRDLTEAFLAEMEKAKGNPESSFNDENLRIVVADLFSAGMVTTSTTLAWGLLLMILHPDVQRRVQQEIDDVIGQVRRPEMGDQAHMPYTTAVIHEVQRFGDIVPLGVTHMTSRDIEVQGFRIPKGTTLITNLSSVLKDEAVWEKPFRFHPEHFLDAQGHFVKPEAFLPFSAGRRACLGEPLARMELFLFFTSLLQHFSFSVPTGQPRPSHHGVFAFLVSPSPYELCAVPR
smiles,measurement,setting,value
CCN(CC)c1ccc2c(O)c(C=Nc3ccc(CC(=O)O)c(-c4c5c(nc6ccccc46)CCC(C(=O)NN)C5)c3)c(=O)oc2c1 (stereo not drawn),Potency,[1],"inconclusive [inhibitor, single point]"
same,Potency,[2],"inconclusive [inhibitor, full curve]"
CN(C)CCc1c[nH]c2ccc(CS(=O)(=O)N3CCCC3)cc12,Potency,[3],"inconclusive [cytotoxic, single point]"
same,Potency,[4],inactive
same,Potency,[5],"inconclusive [cytotoxic, full curve, poor fit]"
same,Potency,[6],inactive
same,Potency,[7],"inconclusive [cytotoxic, partial curve, poor fit]"
NC1(Cc2ccc(Cl)cc2)CCN(c2ncnc3[nH]ccc23)CC1,Potency,[8],"inconclusive [cytotoxic, partial curve]"
same,Potency,[9],"inconclusive [cytotoxic, partial curve]"
same,Potency,[10],"inconclusive [cytotoxic, partial curve]"
same,Potency,[11],"inconclusive [cytotoxic, partial curve]"
same,Potency,[12],active: 11.8 µM
same,Potency,[13],active: 3.32 µM
same,Potency,[4],"inconclusive [inhibitor, partial curve]"
same,Potency,[5],"inconclusive [rising, partial curve, poor fit]"
same,Potency,[6],active: 2.96 µM
same,Potency,[14],"inconclusive [rising, partial curve, poor fit]"
same,Potency,[15],"inconclusive [cytotoxic, partial curve]"
same,Potency,[7],active: 1.87 µM
same,Potency,[16],"inconclusive [falling, partial curve]"
same,Potency,UISO,"inconclusive [inhibitor, partial curve]"
Cc1nc(Nc2n[nH]c3c2CN(C(=O)NC(CN(C)C)c2ccccc2)C3(C)C)c2sccc2n1 (stereo not drawn),Potency,[17],"inconclusive [inhibitor, partial curve, poor fit]"
same,Potency,[18],"inconclusive [activator, partial curve, poor fit]"
O=C(Nc1ccnc(NC(=O)C2CC2)c1)c1c(Cl)cccc1Cl,Potency,[2],inactive
CCCNC(=O)NS(=O)(=O)c1ccc(Cl)cc1,Potency,[8],inactive
same,Potency,[17],inactive
CC[C@@]1([C@@H]2O[C@@H]([C@H]3O[C@@](O)(CO)[C@H](C)C[C@H]3C)C[C@H]2C)CC[C@H]([C@]2(C)CC[C@]3(C[C@H](O)[C@@H](C)[C@@H]([C@@H](C)[C@@H](OC)[C@H](C)C(=O)O)O3)O2)O1,Potency,[8],"inconclusive [cytotoxic, full curve]"
same,Potency,[9],active: 0.15 µM
same,Potency,[3],active: 0.457 µM
same,Potency,[12],"inconclusive [cytotoxic, full curve]"
same,Potency,[4],inactive
same,Potency,[5],"inconclusive [cytotoxic, full curve]"
same,Potency,[6],active: 0.0645 µM
same,Potency,[14],active: 0.144 µM
same,Potency,[15],active: 0.0645 µM
same,Potency,[7],"inconclusive [cytotoxic, full curve]"
same,Potency,[16],"inconclusive [falling, full curve]"
same,Potency,UISO,active: 0.512 µM
COc1cccc(OCCCN)c1-c1cc(Nc2cnc(C#N)cn2)n[nH]1,Potency,[1],inactive
same,Potency,[19]; Viability,active: 17.6 µM
Cc1ccc(C(=O)Nc2ccc(Oc3cc4cnn(C)c4cc3-c3cn[nH]c3)c(F)c2)c(=O)n1-c1ccc(F)cc1,Potency,[4],"inconclusive [inhibitor, full curve]"
same,Potency,[2],inactive
same,Potency,[19]; HiBiT,"inconclusive [inhibitor, full curve]"
same,Potency,[19]; Viability,"inconclusive [cytotoxic, partial curve]"
C[C@@H](Oc1cc(-n2cnc3ccc(OC4CCN(C)CC4)cc32)sc1C(N)=O)c1ccccc1C(F)(F)F,Potency,[2],inactive
same,Potency,[18],"inconclusive [activator, partial curve, poor fit]"
Cc1cc(Nc2ncnc3ccc(-c4ccc(CNCCS(C)(=O)=O)o4)cc23)ccc1Oc1ccn2ncnc2c1,Potency,[9],active: 6.11 µM
same,Potency,[10],active: 6.85 µM
same,Potency,[11],active: 20.9 µM
same,Potency,[12],active: 16.6 µM
same,Potency,[13],active: 11.8 µM
same,Potency,[4],inactive
same,Potency,[17],"inconclusive [inhibitor, partial curve, poor fit]"
same,Potency,[5],"inconclusive [cytotoxic, partial curve, poor fit]"
same,Potency,[6],active: 5.26 µM
same,Potency,[14],"inconclusive [cytotoxic, full curve, poor fit]"
same,Potency,[7],active: 0.372 µM
same,Potency,[16],"inconclusive [falling, partial curve]"
